# Experimental data reported in the supplement of paper PMC4166925.
# ± gives the standard deviation of the averaged measurements. Whole data set: some 33,000 sequences, median “E-score (dimensionless, -0.5 to 0.5)” near -0.046, cut for the highest 2% near 0.36. The list shows a part of the results.
# Tested on: T1, SpTbr T-box DNA-binding domain (GST fusion)
# T1 sequence: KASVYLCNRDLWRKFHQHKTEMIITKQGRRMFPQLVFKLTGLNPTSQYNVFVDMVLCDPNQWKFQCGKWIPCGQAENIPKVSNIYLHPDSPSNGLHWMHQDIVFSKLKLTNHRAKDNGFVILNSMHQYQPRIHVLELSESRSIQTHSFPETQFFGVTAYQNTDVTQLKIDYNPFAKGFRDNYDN
# Assay: PBM E-score of 8-mer (E-score (dimensionless, -0.5 to 0.5)); Tbr is Tbrain of the sea star Patiria miniata (Pm) or the sea urchin Strongylocentrotus purpuratus (Sp); higher = stronger binding preference; most listed sequences are background and not binding sites
# Conditions: the construct has about 5 more residues each side
# Procedure, shortened: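 Each ungapped 8-mer received an enrichment E-score from the Universal PBM Analysis Suite, averaged over duplicate arrays. The proteins were Tbr T-box DNA-binding domains, covering the whole T-box plus about five flanking residues, fused to GST and expressed in BL21 E. coli at 20 °C before glutathione affinity purification. Universal Agilent oligonucleotide arrays were made double-stranded by primer extension and incubated with 200 nM protein in PBS (pH 7.5). The arrays were then scanned and quantified, and every 8-mer was scored from probe intensities.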
row,Sequence,PBM E-score of 8-mer
1,CAATCCCG,-0.0318 ± 0.046
2,GAAGCACA,-0.162 ± 0.028
3,ATACCGTG,0.0874 ± 0.021
4,CCCCGGGG,-0.33 ± 0.023
5,ACCTGGGC,-0.0609 ± 0.0078
6,GGTTGAAC,-0.164 ± 0.024
7,CATTAACG,0.135 ± 0.043
8,AAGAATCA,0.0277 ± 0.0083
9,GCGTGTCC,0.196 ± 0.035
10,ACACATGT,0.345 ± 0.016
11,CATTCAGA,0.0843 ± 0.014
12,ATCCGCTA,0.0409 ± 0.019
13,ATTAAGAC,-0.0771 ± 0.015
14,CCTGATTC,-0.134 ± 0.041
15,ATATCACG,0.223 ± 0.014
16,CGCATAAA,-0.128 ± 0.0037
17,GCACTCAA,0.0216 ± 0.026
18,ACCCCGGA,0.0394 ± 0.01
19,TGTACACA,0.093475 ± 3.5e-05
20,AAAAGGCA,0.054 ± 0.052
21,AAAGTGCT,0.306 ± 0.033
22,AGCACCGA,-0.094 ± 0.013
23,ATACTGGA,-0.0359 ± 0.026
24,AAAGGATT,-0.147 ± 0.0067
25,CAACCACA,0.032 ± 0.086

row,Sequence,PBM E-score of 8-mer
1,CTGACAAA,0.0345 ± 0.084
2,AAGGCAAT,-0.107 ± 0.068
3,ATAGCCTG,-0.136 ± 0.045
4,AAGCCCAG,-0.329 ± 0.076
5,GGTGTTGA,0.4631 ± 0.0038
6,CGCCCCGC,0.0926 ± 0.031
7,ACATAGAC,-0.2041 ± 0.0013
8,GACTGCAA,0.0127 ± 0.067
9,ACACATCC,0.388 ± 0.024
10,AACGTACT,-0.194 ± 0.03
11,TCCAATAA,-0.0798 ± 0.025
12,CTAGAGTC,-0.125 ± 0.016
13,AGAGACTC,-0.276 ± 0.031
14,CGAGTGCG,0.25 ± 0.026
15,AAGGCATC,-0.0866 ± 0.0022
16,CTAAAGCA,-0.0564 ± 0.041
17,ATGTATCG,0.0705 ± 0.031
18,ATCAGGTG,0.386 ± 0.015
19,GTGTAAAC,0.367 ± 0.02
20,ACCGGGGA,-0.298 ± 0.018
21,ACACTGCA,0.209 ± 0.011
22,ACGTTTGG,-0.0682 ± 0.09
23,AGCCAACC,-0.0668 ± 0.029
24,AAGACGAC,-0.0135 ± 0.083
25,TGAGATCA,0.191 ± 0.018

row,Sequence,PBM E-score of 8-mer
1,CTTCTTCC,-0.00617 ± 0.11
2,ACCAGAAC,-0.153 ± 0.031
3,AGAAAGGA,-0.196 ± 0.056
4,ATTTAACA,0.229 ± 0.08
5,AATCAAAT,-0.219 ± 0.029
6,CGCGTCAG,0.303 ± 0.038
7,GAGAGGAA,-0.0238 ± 0.039
8,ATACTCAT,-0.14 ± 0.046
9,CCAATTCC,0.0102 ± 0.0014
10,ATTATCGC,0.295 ± 0.0048
11,CGGAAAAA,0.019 ± 0.025
12,AACTGTGG,0.128 ± 0.0018
13,AGGCAGGC,-0.0653 ± 0.1
14,ATGGACAA,0.101 ± 0.003
15,AGGGTATG,-0.302 ± 0.025
16,GATACACA,0.0102 ± 0.027
17,CATTTTGG,-0.276 ± 0.12
18,CTAAATCA,-0.0274 ± 0.098
19,AGAAATAG,-0.0874 ± 0.0029
20,GTACCCGA,-0.24 ± 0.054
21,ACACTGCT,0.149 ± 0.023
22,CTCTCCGA,-0.103 ± 0.059
23,TGCCAGAA,-0.0821 ± 0.012
24,GAGAAGAA,-0.0422 ± 0.057
25,ACTGAGAG,-0.16 ± 0.035

row,Sequence,PBM E-score of 8-mer
1,AGCGATTG,0.0168 ± 0.0089
2,ACTTCTAA,0.0716 ± 0.013
3,GCCCGTCC,-0.216 ± 0.0065
4,TACTTGCA,-0.06 ± 0.025
5,ACGGTACG,-0.16 ± 0.068
6,CCTACATA,-0.114 ± 0.028
7,GGGTCTGA,-0.2018 ± 0.0014
8,AGTCGAAA,-0.0713 ± 0.052
9,AGGTTCTG,-0.179 ± 0.0082
10,GTGGCATA,-0.0123 ± 0.0012
11,TAGTTTCA,-0.043 ± 0.051
12,GTAAATAA,-0.0344 ± 0.025
13,GACAGTCA,0.1862 ± 0.0017
14,AGTAGCTC,-0.318 ± 0.039
15,ATATGCCG,-0.117 ± 0.028
16,TACATGAA,-0.0791 ± 0.13
17,CACCTCGG,0.402 ± 0.0072
18,ACTGGACT,-0.0864 ± 0.036
19,GGAACTCC,-0.209 ± 0.028
20,AGGACATA,-0.122 ± 0.057
21,GACATAAA,0.143 ± 0.057
22,GTCCTGTA,-0.2 ± 0.034
23,GTATCCTA,-0.111 ± 0.11
24,CACAGACG,0.0964 ± 0.037
25,CCGGGTGA,0.0209 ± 0.0016

row,Sequence,PBM E-score of 8-mer
1,CTCGGCAG,-0.0429 ± 0.015
2,AAGTGCGT,0.203 ± 0.018
3,AAGCACCT,0.118 ± 0.085
4,GCATAAAA,-0.232 ± 0.011
5,CACCTGCG,0.425 ± 0.0075
6,ATATTGGC,0.12 ± 0.019
7,ACTCGTGA,0.305 ± 0.019
8,CGTCCCGC,0.187 ± 0.038
9,AACGTTCG,0.109 ± 0.011
10,AAGATAGC,-0.107 ± 0.016
11,AAGCTTTG,-0.155 ± 0.002
12,ATGTGAGC,0.06995 ± 0.00026
13,TCAGGTCA,-0.146 ± 0.066
14,GAAAGAGA,-0.0687 ± 0.061
15,ACCGTCCC,-0.187 ± 0.059
16,CTTCTAGA,-0.105 ± 0.0086
17,ATCCGCTG,-0.0684 ± 0.052
18,AACTTCCG,-0.221 ± 0.037
19,ACTTTAAT,-0.142 ± 0.052
20,ATGCAGTA,-0.154 ± 0.056
21,ACGGAGCG,-0.0434 ± 0.047
22,AACAGAAT,-0.00744 ± 0.019
23,GTATTCAA,-0.3149 ± 0.00081
24,GACCAAAC,-0.124 ± 0.015
25,TAGTCCGA,-0.0544 ± 0.027

row,Sequence,PBM E-score of 8-mer
1,GCTCAGCA,-0.114 ± 0.06
2,AAGTATTA,-0.102 ± 0.045
3,ACACCCGC,0.3794 ± 0.0031
4,ACCCCTAC,-0.0394 ± 0.064
5,AATAGGTG,0.374 ± 0.03
6,CTTGGACA,-0.0374 ± 0.035
7,AGCCCTAT,-0.284 ± 0.032
8,CTTACACC,0.392 ± 0.025
9,AAAAACAT,-0.203 ± 0.042
10,GAAACTTA,-0.0724 ± 0.023
11,CGTAGAAA,-0.208 ± 0.012
12,AGTTTTTA,-0.111 ± 0.059
13,AGGAAGCA,-0.226 ± 0.058
14,AGATTCAT,-0.178 ± 0.05
15,CAGTCGCC,-0.0981 ± 0.062
16,TGAACCCA,-0.186 ± 0.024
17,CCTGAGGA,-0.0654 ± 0.058
18,CAAGTGGA,0.0541 ± 0.045
19,AAACTTTA,-0.0816 ± 0.066
20,AGCCGGAT,-0.157 ± 0.0031
21,AATCTGGT,-0.19833 ± 0.00011
22,CACAACAA,0.285 ± 0.028
23,CGTACTAC,-0.167 ± 0.054
24,ATAGGCTG,0.0188 ± 0.056
25,AGTCAGGG,-0.263 ± 0.069

row,Sequence,PBM E-score of 8-mer
1,AGCCTTGC,-0.034 ± 0.043
2,ACTATGTC,-0.0247 ± 0.07
3,GCTTCGAC,-0.21 ± 0.021
4,ACGTAGGG,-0.127 ± 0.051
5,CGAGCAGC,-0.092 ± 0.072
6,GAGGATCA,-0.0774 ± 0.03
7,GTGGTTGA,-0.193 ± 0.0035
8,AGATGGAA,-0.105 ± 0.024
9,AATTTAGT,-0.0176 ± 0.054
10,TGCGGCCA,-0.102 ± 0.054
11,CCAAATGG,-0.0512 ± 0.02
12,AAGGCGTA,0.153 ± 0.028
13,CGGTTCGC,0.333 ± 0.02
14,AGGCTCAG,-0.259 ± 0.064
15,CCTAGGTA,0.0144 ± 0.004
16,GGCGGAAA,-0.0237 ± 0.0049
17,ATACCCCC,-0.205 ± 0.028
18,CGGGAAAC,0.1171 ± 0.00015
19,ACTCTGAG,-0.0935 ± 0.02
20,CGGTCGTC,0.0242 ± 0.042
21,ACCATGGT,0.14 ± 0.00095
22,CCCCTTTA,-0.284 ± 0.049
